Measured values from a compilation of properties of binary mixtures (doi:10.1016/j.fluid.2006.05.028).
Some of these densities may be calculated back from excess volumes.

Test: xn = mol fraction of the nth substance listed
Details: 298.15 K, 101.3 kPa

[Br][Al]([Br])[Br] + CC[n+]1ccccc1.[Br-]
Details | mass density [kg/m3]
x2 = 0.65 | 1626

CCOS(=O)(=O)[O-].CC[n+]1ccn(C)c1 + O
Details | mass density [kg/m3]
x1 = 0.004 | 1007
x1 = 0.0084 | 1016
x1 = 0.0133 | 1025
x2 = 0.6983 | 1187
x2 = 0.7663 | 1174
x2 = 0.8139 | 1161
x2 = 0.8974 | 1123
x2 = 0.9148 | 1111
x2 = 0.9413 | 1088
x2 = 0.9606 | 1066

CC[n+]1ccn(C)c1.F[B-](F)(F)F + O
Details | mass density [kg/m3]
x1 = 0.0158 | 1028
x2 = 0 | 1279
x2 = 0.3664 | 1253
x2 = 0.5498 | 1229
x2 = 0.7331 | 1187
x2 = 0.8999 | 1110
x2 = 0.9166 | 1098
x2 = 0.9428 | 1077
x2 = 0.9533 | 1067
x2 = 0.9625 | 1057
x2 = 0.9778 | 1038
